# Source: article PMC9911399, “Two distinct binding modes provide the RNA-binding protein RbFox with extraordinary sequence specificity”
# Substitutions are numbered along the chain they refer to; changes in the protein carry UniProt numbers. The list shows a part of the results.
# T1: RBFOX1 RRM RbFoxmut (Fox-RRM*) (Homo sapiens, UniProt Q9NWB1 109-208, R118D;E147R;N151S;E152T)
# T1 sequence: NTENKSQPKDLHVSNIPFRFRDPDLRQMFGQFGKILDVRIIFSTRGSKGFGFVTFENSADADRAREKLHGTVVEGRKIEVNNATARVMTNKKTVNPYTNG
# B1: UAGGCGU (DNA:RNA)
# RNA: GGGAGACCGGAAUUCAGAUUGUCCUAGGCGUUUAAAUCCCGUCGUAGCCACCA
# DNA 1: CAATCTGAATTCCGGTCTCCC
# DNA 2: TGGTGGCTACGACGGGATT
# B2: UUAUCGU (DNA:RNA)
# RNA: B1 RNA with A26U, G27A, G28U
# DNA 1: CAATCTGAATTCCGGTCTCCC
# DNA 2: TGGTGGCTACGACGGGATT
# B3: GAUACGU (DNA:RNA)
# RNA: B1 RNA with U25G, G27U, G28A
# DNA 1: CAATCTGAATTCCGGTCTCCC
# DNA 2: TGGTGGCTACGACGGGATT
# B4: ACAGCCU (DNA:RNA)
# RNA: B1 RNA with U25A, A26C, G27A, G30C
# DNA 1: CAATCTGAATTCCGGTCTCCC
# DNA 2: TGGTGGCTACGACGGGATT
# B5: UUUAAAG (DNA:RNA)
# RNA: B1 RNA with A26U, G27U, G28A, C29A, G30A, U31G
# DNA 1: CAATCTGAATTCCGGTCTCCC
# DNA 2: TGGTGGCTACGACGGGATT
# B6: AGUAGGU (DNA:RNA)
# RNA: B1 RNA with U25A, A26G, G27U, G28A, C29G
# DNA 1: CAATCTGAATTCCGGTCTCCC
# DNA 2: TGGTGGCTACGACGGGATT
# B7: AGCGGAG (DNA:RNA)
# RNA: B1 RNA with U25A, A26G, G27C, C29G, G30A, U31G
# DNA 1: CAATCTGAATTCCGGTCTCCC
# DNA 2: TGGTGGCTACGACGGGATT
# B8: GUGGCAG (DNA:RNA)
# RNA: B1 RNA with U25G, A26U, G30A, U31G
# DNA 1: CAATCTGAATTCCGGTCTCCC
# DNA 2: TGGTGGCTACGACGGGATT
# B9: GACACGC (DNA:RNA)
# RNA: B1 RNA with U25G, G27C, G28A, U31C
# DNA 1: CAATCTGAATTCCGGTCTCCC
# DNA 2: TGGTGGCTACGACGGGATT
# B10: UGGAUCA (DNA:RNA)
# RNA: B1 RNA with A26G, G28A, C29U, G30C, U31A
# DNA 1: CAATCTGAATTCCGGTCTCCC
# DNA 2: TGGTGGCTACGACGGGATT
# B11: ACAACCC (DNA:RNA)
# RNA: B1 RNA with U25A, A26C, G27A, G28A, G30C, U31C
# DNA 1: CAATCTGAATTCCGGTCTCCC
# DNA 2: TGGTGGCTACGACGGGATT
# B12: GGUUUUU (DNA:RNA)
# RNA: B1 RNA with U25G, A26G, G27U, G28U, C29U, G30U
# DNA 1: CAATCTGAATTCCGGTCTCCC
# DNA 2: TGGTGGCTACGACGGGATT
# B13: ACCGGUU (DNA:RNA)
# RNA: B1 RNA with U25A, A26C, G27C, C29G, G30U
# DNA 1: CAATCTGAATTCCGGTCTCCC
# DNA 2: TGGTGGCTACGACGGGATT
# B14: GAAGUCA (DNA:RNA)
# RNA: B1 RNA with U25G, G27A, C29U, G30C, U31A
# DNA 1: CAATCTGAATTCCGGTCTCCC
# DNA 2: TGGTGGCTACGACGGGATT
# B15: AGCUGUG (DNA:RNA)
# RNA: GGGAGACCGGAAUUCAGAUUGUCCAGCUGUGUUAAAUCCCGUCGUAGCCACCA
# DNA 1: CAATCTGAATTCCGGTCTCCC
# DNA 2: TGGTGGCTACGACGGGATT
# B16: AUCUGUG (DNA:RNA)
# RNA: B15 RNA with G26U
# DNA 1: CAATCTGAATTCCGGTCTCCC
# DNA 2: TGGTGGCTACGACGGGATT
# B17: CCGGGAU (DNA:RNA)
# RNA: B1 RNA with U25C, A26C, C29G, G30A
# DNA 1: CAATCTGAATTCCGGTCTCCC
# DNA 2: TGGTGGCTACGACGGGATT
# B18: UGUGAAA (DNA:RNA)
# RNA: B1 RNA with A26G, G27U, C29A, G30A, U31A
# DNA 1: CAATCTGAATTCCGGTCTCCC
# DNA 2: TGGTGGCTACGACGGGATT
# B19: GGUGGCA (DNA:RNA)
# RNA: B15 RNA with A25G, C27U, U28G, U30C, G31A
# DNA 1: CAATCTGAATTCCGGTCTCCC
# DNA 2: TGGTGGCTACGACGGGATT
# B20: GGCGACU (DNA:RNA)
# RNA: B15 RNA with A25G, U28G, G29A, U30C, G31U
# DNA 1: CAATCTGAATTCCGGTCTCCC
# DNA 2: TGGTGGCTACGACGGGATT
# B21: UGCCUUC (DNA:RNA)
# RNA: B15 RNA with A25U, U28C, G29U, G31C
# DNA 1: CAATCTGAATTCCGGTCTCCC
# DNA 2: TGGTGGCTACGACGGGATT
# B22: CUGGUCU (DNA:RNA)
# RNA: B1 RNA with U25C, A26U, C29U, G30C
# DNA 1: CAATCTGAATTCCGGTCTCCC
# DNA 2: TGGTGGCTACGACGGGATT
# B23: AUGUGGA (DNA:RNA)
# RNA: B15 RNA with G26U, C27G, U30G, G31A
# DNA 1: CAATCTGAATTCCGGTCTCCC
# DNA 2: TGGTGGCTACGACGGGATT
# B24: GCUGAUC (DNA:RNA)
# RNA: B15 RNA with A25G, G26C, C27U, U28G, G29A, G31C
# DNA 1: CAATCTGAATTCCGGTCTCCC
# DNA 2: TGGTGGCTACGACGGGATT
# B25: AUCCGAG (DNA:RNA)
# RNA: B15 RNA with G26U, U28C, U30A
# DNA 1: CAATCTGAATTCCGGTCTCCC
# DNA 2: TGGTGGCTACGACGGGATT
# B26: GCGUGCA (DNA:RNA)
# RNA: B15 RNA with A25G, G26C, C27G, U30C, G31A
# DNA 1: CAATCTGAATTCCGGTCTCCC
# DNA 2: TGGTGGCTACGACGGGATT
# B27: GUCGAGC (DNA:RNA)
# RNA: B1 RNA with U25G, A26U, G27C, C29A, U31C
# DNA 1: CAATCTGAATTCCGGTCTCCC
# DNA 2: TGGTGGCTACGACGGGATT
# B28: CCCCUCG (DNA:RNA)
# RNA: B15 RNA with A25C, G26C, U28C, G29U, U30C
# DNA 1: CAATCTGAATTCCGGTCTCCC
# DNA 2: TGGTGGCTACGACGGGATT
# B29: CGUAGAU (DNA:RNA)
# RNA: B15 RNA with A25C, C27U, U28A, U30A, G31U
# DNA 1: CAATCTGAATTCCGGTCTCCC
# DNA 2: TGGTGGCTACGACGGGATT
# B30: GUAUGAU (DNA:RNA)
# RNA: B15 RNA with A25G, G26U, C27A, U30A, G31U
# DNA 1: CAATCTGAATTCCGGTCTCCC
# DNA 2: TGGTGGCTACGACGGGATT
# B31: CUAGAUU (DNA:RNA)
# RNA: B1 RNA with U25C, A26U, G27A, C29A, G30U
# DNA 1: CAATCTGAATTCCGGTCTCCC
# DNA 2: TGGTGGCTACGACGGGATT
# Biological target: T1, RBFOX1 RRM RbFoxmut (Fox-RRM*)
# Experiment: EMSA; HiTS-Eq, 1 nM pool, 10 min; buffer printed only for the single-RNA assays: 10 mM Tris pH 7.5, 150 mM NaCl, 3.4 mM EDTA, 0.001% NP-40, 30 C
# Settings: tags: His6 N-terminal (pET28a); label: 5' 32P
# Outline: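 A pool of RNA with 7 randomized nucleotides, 5′-radiolabelled and with DNA-annealed flanks, was equilibrated at 1 nM for 10 min in 50 µL with purified RbFox RRM, wild type or mutant, across increasing protein concentrations. Free RNA was separated by 8% native PAGE, excised, reverse-transcribed, barcoded by PCR and sequenced. Relative association constants were obtained from read-count changes of each RNA species versus the control reaction and normalised to the cognate motif.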
row,Binder,binding signal
1,B1,0.0882 KA relative to UGCAUGU
2,B2,0.087 KA relative to UGCAUGU
3,B3,0.106 KA relative to UGCAUGU
4,B4,0.0684 KA relative to UGCAUGU
5,B5,0.108 KA relative to UGCAUGU
6,B6,0.112 KA relative to UGCAUGU
7,B7,0.119 KA relative to UGCAUGU
8,B8,0.13 KA relative to UGCAUGU
9,B9,0.0716 KA relative to UGCAUGU
10,B10,0.29 KA relative to UGCAUGU
11,B11,0.0801 KA relative to UGCAUGU
12,B12,0.056 KA relative to UGCAUGU
13,B13,0.0694 KA relative to UGCAUGU
14,B14,0.0832 KA relative to UGCAUGU
15,B15,0.173 KA relative to UGCAUGU
16,B16,0.14 KA relative to UGCAUGU

row,Binder,binding signal
1,B17,0.101 KA relative to UGCAUGU
2,B18,0.105 KA relative to UGCAUGU
3,B19,0.173 KA relative to UGCAUGU
4,B20,0.0902 KA relative to UGCAUGU
5,B21,0.185 KA relative to UGCAUGU
6,B22,0.101 KA relative to UGCAUGU
7,B23,0.0866 KA relative to UGCAUGU
8,B24,0.0965 KA relative to UGCAUGU
9,B25,0.108 KA relative to UGCAUGU
10,B26,0.225 KA relative to UGCAUGU
11,B27,0.0952 KA relative to UGCAUGU
12,B28,0.116 KA relative to UGCAUGU
13,B29,0.142 KA relative to UGCAUGU
14,B30,0.318 KA relative to UGCAUGU
15,B31,0.0904 KA relative to UGCAUGU
